Test results reported in the supplement of paper PMC4466236.
In all, about 33,000 sequences were measured (“E-score (dimensionless, -0.5 to 0.5)”: median about -0.058, highest 2% from about 0.35 on). Some of the results follow.

tested on: MvaT; test: PBM 8-mer E-score (mean of HK and ME arrays) (E-score (dimensionless, -0.5 to 0.5)); higher = stronger relative binding preference; most listed sequences are background and not binding sites
In short: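 Full-length P. aeruginosa MvaT, with glutathione S-transferase fused to its N-terminus (cloned into pTH6838 by isothermal assembly), was tested by protein binding microarray using a previously described protocol. Two universal double-stranded 60-mer arrays (ME and HK) were used, each with a constant 25-mer primer region and a variable 35-mer region covering all 8-mers. The rank-based 8-mer E-score (-0.5 to 0.5) is the mean of the two arrays, parsed with a custom Python script.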

Going from CTGGATAC to CGCGCGGA, the “PBM 8-mer E-score” value rises from -0.107 to -0.0938.

Compared with CTCGCCTC, CTTAGAAA is higher in “PBM 8-mer E-score” value: -0.301 for the first, 0.216 for the second.

First: CAGAGACC
Second: AATAGAAG
The “PBM 8-mer E-score” value of the first is lower: -0.192 for the first, 0.0707 for the second.

Compared with TAGCAGGA, AAGTTCTG is higher in “PBM 8-mer E-score” value: -0.116 for the first, 0.209 for the second.

Compared with ATTCTGCC, GGGCGAAA is lower in “PBM 8-mer E-score” value: -0.118 for the first, -0.123 for the second.

Compared with GTTTATCA, ACGCGTTA is lower in “PBM 8-mer E-score” value: 0.19 for the first, 0.134 for the second.

Compared with ACGAGTTG, GGAATGCA is lower in “PBM 8-mer E-score” value: 0.0694 for the first, -0.15 for the second.

Going from ATCACCGC to ACCGAGCA, the “PBM 8-mer E-score” value falls from -0.0426 to -0.0631.

First: ACTCGCCA
Second: AGAGACTG
The “PBM 8-mer E-score” value of the first is lower: -0.0387 for the first, -0.0263 for the second.

Compared with AGTTAGAT, AACTAGGC is lower in “PBM 8-mer E-score” value: 0.249 for the first, 0.0482 for the second.

First: CGCTTCCG
Second: AGTTCCCG
The “PBM 8-mer E-score” value of the first is lower: -0.225 for the first, -0.168 for the second.

Compared with AGCAAGAA, CAGCGATG is lower in “PBM 8-mer E-score” value: 0.0118 for the first, -0.174 for the second.

Going from GAGCCAAC to GAGTTGAC, the “PBM 8-mer E-score” value rises from -0.181 to -0.118.

First: ACCGGACT
Second: CAGTCCTA
The “PBM 8-mer E-score” value of the first is lower: -0.137 for the first, -0.1 for the second.

Compared with GAAACCCC, AGGGCTGC is higher in “PBM 8-mer E-score” value: -0.293 for the first, -0.248 for the second.

Going from CATCAGAA to GGACACGA, the “PBM 8-mer E-score” value falls from -0.0278 to -0.163.

First: GGGTTTGA
Second: ATTTCGGA
The “PBM 8-mer E-score” value of the first is lower: -0.077 for the first, 0.179 for the second.

Going from GTGTGTCA to CGATCAAC, the “PBM 8-mer E-score” value falls from 0.134 to -0.0799.

Compared with GCTATATA, CCCCGCTC is lower in “PBM 8-mer E-score” value: 0.402 for the first, -0.217 for the second.

First: ACGGTCCA
Second: ATGAGATG
The “PBM 8-mer E-score” value of the first is lower: -0.12 for the first, -0.0965 for the second.

Going from TACACTAA to ACATCACG, the “PBM 8-mer E-score” value falls from 0.276 to -0.0982.

Compared with ACCGCCCC, TAGCTGAA is higher in “PBM 8-mer E-score” value: -0.307 for the first, -0.0283 for the second.

Going from AGCTTAAG to AAAGAGCC, the “PBM 8-mer E-score” value falls from 0.0156 to -0.0346.

Compared with ATGGCCTG, CTTTGCTC is higher in “PBM 8-mer E-score” value: -0.327 for the first, -0.0975 for the second.

First: GTCTGCAC
Second: CCGGGAGG
The “PBM 8-mer E-score” value of the first is higher: -0.0118 for the first, -0.293 for the second.

First: CGAAATGA
Second: CAGAAGGC
The “PBM 8-mer E-score” value of the first is higher: -0.0521 for the first, -0.229 for the second.

Compared with CTGTTGGA, AGACAGAA is lower in “PBM 8-mer E-score” value: 0.014 for the first, -0.0306 for the second.

Compared with ATTGAGTA, ATTTCATG is higher in “PBM 8-mer E-score” value: 0.127 for the first, 0.184 for the second.

Going from GATATGGC to GGAGACTA, the “PBM 8-mer E-score” value rises from -0.12 to -0.0934.

Compared with AGGATGAC, ATGGTCGA is lower in “PBM 8-mer E-score” value: -0.124 for the first, -0.127 for the second.

Going from ACACGTGT to ACAGATGG, the “PBM 8-mer E-score” value rises from -0.0859 to -0.0295.

Compared with CGGTATTA, GGAAGAGA is lower in “PBM 8-mer E-score” value: 0.187 for the first, -0.234 for the second.

First: CCGCCAGC
Second: GAACGTCA
The “PBM 8-mer E-score” value of the first is lower: -0.258 for the first, -0.0941 for the second.

Going from ATCATCGG to ACCCCCAC, the “PBM 8-mer E-score” value falls from -0.0977 to -0.242.

Compared with TAAGGGGA, ATAACAAT is higher in “PBM 8-mer E-score” value: -0.128 for the first, 0.355 for the second.

Going from ATTGACGC to ACTTCGAA, the “PBM 8-mer E-score” value rises from -0.03 to 0.247.

Going from AGAGTCAT to GCGCGTTA, the “PBM 8-mer E-score” value rises from -0.0526 to 0.0588.

Compared with AGCGTCAA, CGTGGTCA is higher in “PBM 8-mer E-score” value: -0.106 for the first, -0.0218 for the second.

Going from ATAAAATG to AATATTAC, the “PBM 8-mer E-score” value rises from 0.249 to 0.372.

Compared with ACTCTGGC, CAGTATCC is lower in “PBM 8-mer E-score” value: -0.165 for the first, -0.22 for the second.

Going from CGGATAAC to GAACCGAC, the “PBM 8-mer E-score” value falls from 0.0833 to -0.111.

Compared with GGGCGCAC, CTCCCTAC is higher in “PBM 8-mer E-score” value: -0.272 for the first, -0.109 for the second.

First: AAGGACCA
Second: ATATCGCA
The “PBM 8-mer E-score” value of the first is lower: -0.154 for the first, 0.208 for the second.

Going from AGCGGGAT to ACACACAC, the “PBM 8-mer E-score” value rises from -0.138 to 0.109.

Compared with CGAGAATA, GGATTACA is higher in “PBM 8-mer E-score” value: 0.118 for the first, 0.17 for the second.

Compared with CATCGGCA, CATCTTGG is higher in “PBM 8-mer E-score” value: -0.243 for the first, -0.216 for the second.

Going from AGTGATAT to CGAAGTAC, the “PBM 8-mer E-score” value falls from 0.256 to 0.097.

Compared with GAAGGGGC, TGAGAACA is higher in “PBM 8-mer E-score” value: -0.364 for the first, 0.056 for the second.

Compared with AAACGCGA, GTCGCGTA is lower in “PBM 8-mer E-score” value: 0.0593 for the first, -0.0332 for the second.

Going from ATCGCCAT to ATCCGCTC, the “PBM 8-mer E-score” value falls from 0.016 to -0.0559.

First: ATTAAAAG
Second: ATAAAGAC
The “PBM 8-mer E-score” value of the first is higher: 0.393 for the first, 0.241 for the second.

Going from ACTTATAG to AAGCGAGT, the “PBM 8-mer E-score” value falls from 0.251 to 0.0117.

Compared with ATGGACAG, ATATCTCC is higher in “PBM 8-mer E-score” value: -0.12 for the first, 0.137 for the second.

Going from GTGAAGAA to GGAAATCA, the “PBM 8-mer E-score” value falls from -0.0121 to -0.0787.

First: CCCCAAAG
Second: AGGTGCAA
The “PBM 8-mer E-score” value of the first is lower: -0.265 for the first, -0.0637 for the second.

Compared with GTCGAGAA, AGCGTACT is higher in “PBM 8-mer E-score” value: -0.0478 for the first, -0.0455 for the second.

Compared with AAGGCCAG, CTACCAAG is lower in “PBM 8-mer E-score” value: -0.242 for the first, -0.272 for the second.

Compared with ATATGTTG, CAACGAAG is lower in “PBM 8-mer E-score” value: 0.359 for the first, -0.0936 for the second.

First: AGACCAAT
Second: AGGGCGGG
The “PBM 8-mer E-score” value of the first is higher: 0.0439 for the first, -0.124 for the second.

Going from TACTTGAA to GCAGTACA, the “PBM 8-mer E-score” value falls from 0.168 to -0.0133.

Compared with CCAGTGGG, GGTACTTA is higher in “PBM 8-mer E-score” value: -0.31 for the first, 0.163 for the second.

Compared with ACCTTTGC, ATAGAGTC is higher in “PBM 8-mer E-score” value: -0.068 for the first, -0.0643 for the second.

Going from CATTGACG to CCGTAGCA, the “PBM 8-mer E-score” value falls from -0.1 to -0.197.

Going from GAACGAAA to AGGTTAAC, the “PBM 8-mer E-score” value rises from 0.111 to 0.166.

Going from CCGTCCGA to ACACGTCC, the “PBM 8-mer E-score” value rises from -0.211 to -0.136.

First: AGAGTATG
Second: CGATACAG
The “PBM 8-mer E-score” value of the first is higher: 0.174 for the first, -0.0892 for the second.

Going from CCAATTTC to AAGATCGC, the “PBM 8-mer E-score” value falls from 0.138 to -0.0523.

Compared with CCGGGAAG, AAATCGCT is higher in “PBM 8-mer E-score” value: -0.197 for the first, 0.0379 for the second.

Compared with CAGTAGCC, CCGCCGAG is lower in “PBM 8-mer E-score” value: -0.125 for the first, -0.14 for the second.

Going from ATCTTACG to AAGTTTGG, the “PBM 8-mer E-score” value rises from 0.058 to 0.161.

First: AATAGAGG
Second: ATTAACGA
The “PBM 8-mer E-score” value of the first is lower: 0.127 for the first, 0.246 for the second.

Compared with CGACAACG, AACTGCGG is higher in “PBM 8-mer E-score” value: -0.11 for the first, 0.034 for the second.

First: GACAGACA
Second: AACATGTC
The “PBM 8-mer E-score” value of the first is higher: -0.0128 for the first, -0.0784 for the second.

First: ACCGCAAA
Second: ATTCGGGA
The “PBM 8-mer E-score” value of the first is lower: -0.0109 for the first, 0.137 for the second.

Going from CCATCGTA to CCCGGGAA, the “PBM 8-mer E-score” value rises from -0.295 to -0.142.

Going from AATTCTTA to CTGGAGGC, the “PBM 8-mer E-score” value falls from 0.316 to -0.235.

Going from AGTTTATC to CTTTGCCA, the “PBM 8-mer E-score” value falls from 0.144 to -0.0477.

Compared with ATTGCGGC, ATTATCTG is higher in “PBM 8-mer E-score” value: -0.014 for the first, 0.355 for the second.

First: GAGACCTC
Second: CTCGGCGC
The “PBM 8-mer E-score” value of the first is lower: -0.336 for the first, -0.223 for the second.

Compared with CACGGTGA, CGGCCATA is higher in “PBM 8-mer E-score” value: -0.216 for the first, -0.0816 for the second.

Compared with ACGCAATG, AGGTCTTA is lower in “PBM 8-mer E-score” value: 0.0122 for the first, -0.121 for the second.

Compared with ATGTAAAG, CAGCATAG is lower in “PBM 8-mer E-score” value: 0.278 for the first, 0.0322 for the second.

Compared with CAGAGTCG, CGCCATAG is lower in “PBM 8-mer E-score” value: -0.165 for the first, -0.251 for the second.

First: ATAGCACC
Second: CTCAGAAA
The “PBM 8-mer E-score” value of the first is lower: -0.166 for the first, 0.0348 for the second.

Going from CTTACCCC to ACTTGTTG, the “PBM 8-mer E-score” value rises from -0.143 to 0.199.

First: AAGGAGTG
Second: ATGTACCG
The “PBM 8-mer E-score” value of the first is lower: -0.139 for the first, 0.184 for the second.
